# Laboratory results: PubChem BioAssay AID493208 (National Center for Advancing Translational Sciences (NCATS), 2011)
# Out of some 44,000 compounds screened, about 340 (0.77%) were called active. Not shown: some 5% with an inconclusive outcome. Calls come from the whole dose curve; as a rule, active = well fitted inhibition curve with a large enough effect; inconclusive = small, poorly fitted or top-dose-only effect; inactive = flat fitted curve, though single readings scatter. Some of the results follow.
# Assay: Acumen qHTS Assay for Inhibitors of the mTORC1 Signaling Pathway in MEF (Tsc2-/-, p53-/-) Cells: Sytravon; note: nearly all actives have a fitted effect of over 50% in size;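 for activity change, negative = inhibition: plate controls were DMSO for no effect and rapamycin for full effect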
# Conditions: phospho-rpS6 immunofluorescence/PI, 24 h; series mostly up to 38.3 µM; activity change, negative = inhibition: at the top concentration
# Method in brief: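 Readout is phospho-S6 Alexa 488 signal normalized to PI per well, reported as % active cells with thresholds set from rapamycin (7.5 nM) and DMSO controls. Cells: Tsc2-/-, p53-/- MEFs, 24 hrs compound at 37 C; PI cell number serves as viability.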
# Potency is the fitted concentration of half-maximal effect.
Compound,"activity change, negative = inhibition",Potency
Cn1c2ccccc2c2cnn(CC(=O)NCc3ccc(Cl)cc3)c(=O)c21,inactive: -0.708%,
COc1ccc2[nH]c(=O)c(CN(C(=O)c3cccc(Cl)c3)c3ccccc3OC)cc2c1,inactive: 0.784%,
COc1ccc(S(=O)(=O)NCCc2csc3nc(-c4ccc(Cl)cc4)nn23)cc1C,inactive: -15.4%,
CS(=O)(=O)N1CCc2cc(S(=O)(=O)NCc3ccccc3Cl)ccc21,inactive: -2.14%,
COc1ccc(-c2nc(Cn3c(SCc4cccc(Cl)c4)nc4ccncc43)c(C)o2)cc1,inactive: -14.3%,
Cn1cnc(S(=O)(=O)N2CCC(C(=O)NCc3ccccc3)CC2)c1,inactive: -8.64%,
CC1=C(c2ccc(F)cc2)S(=O)(=O)N=C1N1CCC(C(=O)NCCc2ccco2)CC1,inactive: -16.7%,
CCOC(=O)c1c(S(=O)(=O)N2CCCC(C(=O)N(C)Cc3ccccc3)C2)c(C)n(C)c1C (stereo not given),inactive: 1.26%,
COc1cc(NC(=O)Cn2ccn(Cc3ccccc3OC)c(=O)c2=O)cc(OC)c1,inactive: -0.369%,
COC(=O)c1cc2c(cc1NC(=O)c1c(C)nn(-c3ccc(C)cc3)c1-n1cccc1)OCO2,inactive: -0.619%,
Cc1cccc(-n2c(-c3ccco3)nc3c(cnn3-c3ccccc3C)c2=O)c1,inactive: 1.35%,
Cc1ccc(C(c2sc3nc(-c4ccco4)nn3c2O)N2CCOCC2)cc1 (stereo not given),inactive: -0.592%,
COc1ccccc1NC(=O)CSc1nc2ccccc2c(=O)n1CCC(=O)NC1CCCCC1,inactive: 0.762%,
O=C(CN1CCN(Cc2ccc(F)cc2Cl)S1(=O)=O)Nc1ccc(F)cc1,inactive: -2.3%,
Cc1ccc(Cn2nc(C)c(NC(=O)c3cc(-c4ccc(F)cc4)on3)c2C)cc1,inactive: -16.9%,
Cc1nn(C(=O)c2ccccc2)c(C)c1Sc1ccc(Cl)cc1,inactive: -2.73%,
CCOc1ccc(NC(=O)Cn2c(=O)oc3cc(S(=O)(=O)NC4CCCC4)ccc32)cc1,inactive: -6.69%,
Cc1ccc(NC(=O)Cn2c(C)cc(C)c(C#N)c2=O)cc1,inactive: 28.8%,
Cc1ccccc1NC(=O)C1CCC(CNS(=O)(=O)c2ccc3c(c2)C(C)(C)C(=O)N3C)CC1 (stereo not given),inactive: 0%,
CCOc1ccc(CCNC(=O)c2cn(C)c3ccc(S(=O)(=O)N4CCOCC4)cc3c2=O)cc1OCC,inactive: 1.32%,
Cc1ccc(-n2ncc3c(N(C)Cc4ccccc4)ncnc32)cc1,inactive: 11.8%,
Cc1cc(NS(=O)(=O)c2ccc(NC(=O)c3ccccc3F)cc2)nc(C)n1,inactive: -7.76%,
COc1ccc(OCc2ccc(-c3nc(C#N)c(N4CCC(C)CC4)o3)o2)cc1,inactive: -1.68%,
CCCNC(=O)C(=O)NCC(c1ccc2c(c1)OCO2)N1CCOCC1 (stereo not given),inactive: -14.4%,

Compound,"activity change, negative = inhibition",Potency
Cc1ccc(NC(=O)c2ccc3snnc3c2)cc1Cl,inactive: 4.49%,
CCc1ccc(S(=O)(=O)c2nnn(-c3ccc(F)cc3)c2N)cc1,inactive: -1.9%,
C=C(C)Cn1c(SCC(=O)Nc2cc(C)ccc2C)nc2sc3c(c2c1=O)CCCC3,inactive: -17.8%,
CCC(=O)N1CCc2cc(Br)cc(S(=O)(=O)CCC(=O)N3CCN(c4ccccc4OC)CC3)c21,inactive: -0.0101%,
CCOC(=O)c1ccc(N2CCN(c3ccc(F)cc3)CC2)c(NC(=O)Nc2cccc(OC)c2)c1,inactive: -0.295%,
COc1ccc(-c2ccnc3[nH]n(-c4ccccc4)c(=O)c23)cc1,inactive: 2.61%,
COc1ccccc1N1CCN(S(=O)(=O)c2ccc3[nH]c4c(c3c2)CCCC4)CC1,inactive: -0.325%,
CCOc1cc(-c2nnc(SCC(=O)NCc3ccccc3)nc2-c2ccc(OC)c(OCC)c2)ccc1OC,inactive: -14.4%,
CCc1ccc(NC(=O)C2CCCN(S(=O)(=O)c3ccc4c(c3)CCCN4C(C)=O)C2)cc1 (stereo not given),inactive: 0.158%,
Cc1ccc(-n2ncc(C(=O)N3CCCCC3)c2C2CCN(C(=O)OC(C)(C)C)CC2)cc1C,inactive: 3.69%,
COc1ccc(C(=O)N2CC(=O)Nc3ccc(C)cc3C2c2ccccc2)c(OC)c1 (stereo not given),inactive: 3.4%,
COc1ccc(Cn2c(C(=O)O)c(CNCCc3cccs3)c3ccc(C)cc32)cc1,inactive: -8.64%,
COc1ccccc1CNC(=O)c1ccc2c(c1)N(Cc1cccc(Cl)c1)C(=O)c1ccccc1S2(=O)=O,inactive: -15.9%,
Cc1ccc(Cn2c(C(=O)O)c(CNC3CCCCCC3)c3ccc(C)cc32)cc1,inactive: 0.955%,
Cc1ccc(NC(=O)Cn2c(=O)n(CCC(=O)N3CCc4ccccc4C3)c(=O)c3ccccc32)cc1,inactive: 3.44%,
Cc1cc(C)cc(S(=O)(=O)Nc2cccc(-c3ccc(N4CCOCC4)nn3)c2)c1,inactive: 0.815%,
CC(=O)c1ccc(NC(=O)Cn2c(=O)c3cccn3c3ccccc32)cc1,inactive: 10.4%,
Cc1oc2ncn(CC(C)C)c(=O)c2c1C(=O)Nc1cc(F)ccc1F,inactive: 2.3%,
CC(C)(C)C(=O)NCCc1nc2ccccc2n1CCCCOc1ccc(Cl)cc1,inactive: -17.6%,
COc1ccc(-n2nc3c(N4CCCC(C(=O)NCc5cccc(F)c5)C4)nnc(C)c3c2C)cc1 (stereo not given),inactive: -20.5%,
Cc1ccc(C)c(OCCn2cc(C(=O)c3ccco3)c3ccccc32)c1,inactive: -14.4%,
CCn1c(CNC(=O)C23CC4CC(CC(C4)C2)C3)nnc1SCC(=O)Nc1ccccc1,inactive: 1.64%,
COc1cccc(CNC(=O)c2cc3c(s2)-c2c(C)cccc2OC3)c1,inactive: 0.425%,
COc1ccc(-c2nc(CNS(=O)(=O)c3ccccc3)cs2)cc1,inactive: -0.784%,

Compound,"activity change, negative = inhibition",Potency
O=C(Oc1ccc(F)cc1)c1nc(SCc2ccccc2F)ncc1Cl,inactive: -2.85%,
Cc1oc2ncn(C)c(=O)c2c1C(=O)N1CCN(c2ccccc2)CC1,inactive: 6.42%,
COc1ccccc1C(=O)NC1(C(F)(F)F)C(=O)Nc2c1c(=O)[nH]c(=O)n2-c1ccccc1 (stereo not given),inactive: 3.74%,
Cn1c(=O)c2c([nH]c(=O)n2Cc2ccc(Cl)cc2Cl)n(C)c1=O,inactive: 6.64%,
Cc1ccc2c(c1)-c1nc(-c3ccc4c(c3)NC(=O)CO4)cc(-c3ccc(Cl)cc3)c1CO2,inactive: 2.79%,
Cc1ccc2nc(N3CCN(C(=O)C4CC4)CC3)sc2c1,inactive: 2.5%,
CC1CCCN(CCCNC(=O)c2cn(C)c3ccc(S(=O)(=O)N(C)C4CCCCC4)cc3c2=O)C1 (stereo not given),inactive: -3.91%,
Cc1ccc(NS(=O)(=O)c2ccc3nc(-c4ccccc4)[nH]c3c2)c(Cl)c1,inactive: 6.51%,
CCOC(=O)c1ccccc1NC(=O)c1cc2c(=O)oc3ccc(C)cc3c2s1,inactive: -0.575%,
CCCc1c(C)c2ccc(O)c(CN3CCN(c4ccc(F)cc4)CC3)c2oc1=O,inactive: 2.3%,
COc1ccccc1CNC(=O)CN1C(=O)CSc2ccc(S(=O)(=O)N3CCCCC3)cc21,inactive: -8.95%,
COC(=O)c1c(Oc2ccc(C(C)=O)cc2)nnc(-c2ccccc2)c1-c1ccccc1,inactive: 2.46%,
CCN(c1ccccc1)c1ncnc2c1cnn2-c1ccc(C)cc1C,inactive: -3.4%,
Cc1ccc(NC(=O)Cn2cc3c(n2)CCCCC3)cc1,inactive: -11.7%,
Cc1ccc(S(=O)(=O)Nc2cccc(-c3cn4cccc(C)c4n3)c2)cc1,inactive: 1.83%,
Cc1cccc(N2CCN(C(=O)c3c(C)oc4ncnc(N5CCCCC5)c34)CC2)c1C,inactive: 0.484%,
Cc1ccc(C)c(Nc2nc3c(S(=O)(=O)c4ccc(C(C)C)cc4)nnn3c3ccsc23)c1,inactive: -2.06%,
CCc1ccc(C2CC(=O)Nc3cc4c(cc32)OCO4)cc1 (stereo not given),inactive: -1.04%,
CCOC(=O)c1noc2nc(C)n(CC(=O)Nc3ccccc3F)c(=O)c12,inactive: -1.72%,
CC(C)CN(CCCNC(=O)CN1C(=O)CSc2ccc(S(=O)(=O)N3CCOCC3)cc21)CC(C)C,inactive: 12.8%,
CCOc1ccc(CNC(=O)CSc2nnc(C)c3c(C)n(-c4ccccc4)nc23)cc1,inactive: -0.0811%,
Cc1ccccc1CCNC(=O)c1ccc2c(c1)c(C)c(C)n2Cc1ccccc1,inactive: -2.17%,
CCc1ccccc1N1C(=O)N(Cc2ccccc2C)c2ccccc2S1(=O)=O,inactive: 2.37%,
COc1ccc(S(=O)(=O)n2ccnc2)cc1C(C)(C)C,inactive: 0.767%,

Compound,"activity change, negative = inhibition",Potency
COc1ccc(OC)c2sc(N3CCN(C(=O)C4CC4)CC3)nc12,inactive: -11.4%,
COc1ccc(OC)c(-n2cnc3cc(C(=O)NC4CCCCCC4)ccc32)c1,inactive: -0.764%,
COc1ccccc1NC(=O)c1cnc(SCC(=O)N2CCCc3ccccc32)n(C)c1=O,inactive: 1.57%,
COc1ccc(-c2cc(C)nc3c(-c4ccc(OC)c(OC)c4)c(C)nn23)cc1,inactive: -1.42%,
COc1ccc(N2CCN(C(=O)c3cc4ccc5cccnc5c4[nH]3)CC2)cc1,inactive: 2.41%,
CSc1ccc(-c2nc3ccc(C)cn3c2Nc2ccccc2C)cc1,inactive: -6.4%,
Cc1cccc(-c2nnn3c2nc(NCCc2ccc(S(N)(=O)=O)cc2)c2cc(Cl)ccc23)c1,inactive: 2.59%,
CS(=O)(=O)N(CC(=O)NCCc1ccccc1)c1cc(C(F)(F)F)ccc1Cl,,active: 6.56 µM
CCCCCn1c(=O)[nH]c2cc(C(=O)N3CCN(c4cccc(C)c4)C(C)C3)ccc2c1=O (stereo not given),inactive: 1.46%,
Cc1cccc(Oc2nc3c(c(=O)n(C)c(=O)n3C)n2C)c1,inactive: 7%,
O=C(NCC12CC3CC(CC(C3)C1)C2)c1cc2nc(-c3ccccc3)cc(C(F)(F)F)n2n1,inactive: 4.14%,
O=C1CCCc2cc(S(=O)(=O)NCC3CCC(C(=O)Nc4ccccc4F)CC3)ccc2N1 (stereo not given),inactive: -0.129%,
Fc1cc(Br)ccc1Nc1c2c(nc3nc(-c4cccs4)nn13)CCCC2,inactive: 0%,
CC(NC(=O)c1ccccc1NC(=O)c1nsc2ccccc12)c1ccccc1 (stereo not given),inactive: -4.94%,
COc1ccc(OC)c(CCNc2ncnc3onc(-c4ccc(F)cc4)c23)c1,inactive: -2.15%,
COC(=O)c1ccc(OC)c(Cn2c(=O)n(Cc3ccccc3)c(=O)c3c2c2cc(OC)ccc2n3C)c1,inactive: -2.98%,
CC(=O)c1ccc(NC(=O)C2=CC(c3ccc4c(c3)OCO4)=NS(=O)(=O)N2C)cc1,inactive: -3.6%,
COc1ccc(-c2ccc(=O)n(CC(=O)Nc3ccc(C)cc3C)n2)cc1,inactive: 0.651%,
COc1ccc(-c2noc(CCC(=O)NCc3ccc(C)cc3)n2)cc1,inactive: -22%,
O=c1n(Cc2cccc(C(F)(F)F)c2)c2ccccc2c2nc(-c3ccccc3)nn12,inactive: 4.84%,
Cc1ccc(-c2ccc(CCC(=O)O)n2-c2cccc(O)c2)cc1,inactive: -7.28%,
Cc1ccc(CNC(=O)CCCCCn2c(=O)c3sccc3n(CC(=O)N(C)c3ccccc3)c2=O)cc1,inactive: -5.82%,
Cc1ccc(C(=O)Nc2ccc3oc(-c4ccc(C(C)(C)C)cc4)nc3c2)cc1,inactive: -4.81%,
